In patent US20230192795A1 (Hoffmann-La Roche, published 2023):

T1: IL-7Rα/IL-2Rγ on human T cells (human, UniProt P16871 21-459; P31785 23-369)
T1 sequence (looked up) 1: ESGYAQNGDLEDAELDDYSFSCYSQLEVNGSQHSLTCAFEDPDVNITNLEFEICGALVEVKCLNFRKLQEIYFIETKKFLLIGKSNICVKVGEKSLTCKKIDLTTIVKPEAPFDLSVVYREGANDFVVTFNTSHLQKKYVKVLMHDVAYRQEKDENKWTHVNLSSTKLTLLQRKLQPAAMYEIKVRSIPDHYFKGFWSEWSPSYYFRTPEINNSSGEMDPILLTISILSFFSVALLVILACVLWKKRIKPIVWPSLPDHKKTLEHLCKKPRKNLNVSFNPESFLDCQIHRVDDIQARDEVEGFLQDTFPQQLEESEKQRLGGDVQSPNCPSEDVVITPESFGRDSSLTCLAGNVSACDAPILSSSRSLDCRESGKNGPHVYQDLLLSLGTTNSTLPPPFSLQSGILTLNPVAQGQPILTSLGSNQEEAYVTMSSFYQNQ
T1 sequence (looked up) 2: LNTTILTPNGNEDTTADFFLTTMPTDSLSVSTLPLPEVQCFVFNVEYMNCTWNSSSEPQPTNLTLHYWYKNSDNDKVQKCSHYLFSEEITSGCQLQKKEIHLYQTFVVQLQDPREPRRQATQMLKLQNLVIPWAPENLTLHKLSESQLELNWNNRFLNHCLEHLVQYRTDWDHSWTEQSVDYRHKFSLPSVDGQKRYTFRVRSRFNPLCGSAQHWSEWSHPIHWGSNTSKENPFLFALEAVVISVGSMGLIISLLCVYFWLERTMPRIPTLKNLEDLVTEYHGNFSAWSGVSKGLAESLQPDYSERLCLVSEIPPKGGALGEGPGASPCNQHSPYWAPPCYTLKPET

T2: murine IL7Ra-IL2Rg-Fc biotin (murine, UniProt P16872 21-239; P34902 23-263)
T2 construct: extracellular domain; Heterodimer of the ECD of IL7Ra and IL2Rg chains fused to an Fc; also called murine IL7Ralpha-IL2Rgamma-Fc heterodimer; murine IL7 receptor; not shown: Fc part and avi tag; Fc part
T2 sequence (looked up) 1: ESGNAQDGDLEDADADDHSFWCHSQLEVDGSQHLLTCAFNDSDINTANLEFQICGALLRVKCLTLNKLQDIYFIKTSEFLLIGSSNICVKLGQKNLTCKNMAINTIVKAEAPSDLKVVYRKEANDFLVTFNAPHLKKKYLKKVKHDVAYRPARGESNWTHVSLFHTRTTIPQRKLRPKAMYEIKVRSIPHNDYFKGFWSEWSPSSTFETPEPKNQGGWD
T2 sequence (looked up) 2: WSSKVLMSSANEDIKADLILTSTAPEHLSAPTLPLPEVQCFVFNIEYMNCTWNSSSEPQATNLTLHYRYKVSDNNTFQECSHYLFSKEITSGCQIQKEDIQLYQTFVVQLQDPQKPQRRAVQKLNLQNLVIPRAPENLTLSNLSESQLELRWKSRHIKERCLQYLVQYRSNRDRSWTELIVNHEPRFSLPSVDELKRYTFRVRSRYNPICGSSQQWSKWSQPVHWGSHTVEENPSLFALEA

B1: PD1-IL7-VAR18 (K81E) VAR20 (G85K) (other)
light: DIVMTQSPDSLAVSLGERATINCKASESVDTSDNSFIHWYQQKPGQSPKLLIYRSSTLESGVPDRFSGSGSGTDFTLTISSLQAEDVAVYYCQQNYDVPWTFGQGTKVEIKRTVAAPSVFIFPPSDEQLKSGTASVVCLLNNFYPREAKVQWKVDNALQSGNSQESVTEQDSKDSTYSLSSTLTLSKADYEKHKVYACEVTHQGLSSPVTKSFNRGEC
heavy 1: EVQLLESGGGLVQPGGSLRLSCAASGFSFSSYTMSWVRQAPGKGLEWVATISGGGRDIYYPDSVKGRFTISRDNSKNTLYLQMNSLRAEDTAVYYCVLLTGRVYFALDSWGQGTLVTVSSASTKGPSVFPLAPSSKSTSGGTAALGCLVKDYFPEPVTVSWNSGALTSGVHTFPAVLQSSGLYSLSSVVTVPSSSLGTQTYICNVNHKPSNTKVDKKVEPKSCDKTHTCPPCPAPEAAGGPSVFLFPPKPKDTLMISRTPEVTCVVVDVSHEDPEVKFNWYVDGVEVHNAKTKPREEQYNSTYRVVSVLTVLHQDWLNGKEYKCKVSNKALGAPIEKTISKAKGQPREPQVCTLPPSRDELTKNQVSLSCAVKGFYPSDIAVEWESNGQPENNYKTTPPVLDSDGSFFLVSKLTVDKSRWQQGNVFSCSVMHEALHNHYTQKSLSLSPGK
heavy 2: EVQLLESGGGLVQPGGSLRLSCAASGFSFSSYTMSWVRQAPGKGLEWVATISGGGRDIYYPDSVKGRFTISRDNSKNTLYLQMNSLRAEDTAVYYCVLLTGRVYFALDSWGQGTLVTVSSASTKGPSVFPLAPSSKSTSGGTAALGCLVKDYFPEPVTVSWNSGALTSGVHTFPAVLQSSGLYSLSSVVTVPSSSLGTQTYICNVNHKPSNTKVDKKV[human IgG1 Fc with changes left out]GGGGSGGGGSGGGGSDCDIEGKDGKQYESVLMVSIDQLLDSMKEIGSNCLNNEFNFFKRHICDANKEGMFLFRAARKLRQFLKMNSTGDFDLHLLEVSEKTTILLNCTGQVKGRKPAALGEAQPTKSLEENKSLKEQKKLNDLCFLKRLLQEIKTCWNKILMGTKEH
notes: Format as m1; IL-7 with K81E and G85K; also called PD1-IL7 VAR18/20 (K81E/G85K); PD1-IL7VAR18/20
B2: Reference Molecule 6 (other)
light: B1 light
heavy 1: B1 heavy 1
heavy 2: EVQLLESGGGLVQPGGSLRLSCAASGFSFSSYTMSWVRQAPGKGLEWVATISGGGRDIYYPDSVKGRFTISRDNSKNTLYLQMNSLRAEDTAVYYCVLLTGRVYFALDSWGQGTLVTVSSASTKGPSVFPLAPSSKSTSGGTAALGCLVKDYFPEPVTVSWNSGALTSGVHTFPAVLQSSGLYSLSSVVTVPSSSLGTQTYICNVNHKPSNTKVDKKV[human IgG1 Fc with changes left out]GGGGSGGGGSGGGGSDSDIEGKDGKQYESVLMVSIDQLLDSMKEIGSNCLNNEFNFFKRHISDANKEGMFLFRAARKLRQFLKMNSTGDFDLHLLKVSEGTTILLNSTGQVKGRKPAALGEAQPTKSLEENKSLKEQKKLNDLCFLKRLLQEIKTSWNKILMGTKEH
notes: Format as m1; IL-7 SS2 (C2S/C141S, C47S/C92S); also called P1AF9648-033
B3: PD1-IL7-VAR20 (G85K) (other)
light: B1 light
heavy 1: B1 heavy 1
heavy 2: EVQLLESGGGLVQPGGSLRLSCAASGFSFSSYTMSWVRQAPGKGLEWVATISGGGRDIYYPDSVKGRFTISRDNSKNTLYLQMNSLRAEDTAVYYCVLLTGRVYFALDSWGQGTLVTVSSASTKGPSVFPLAPSSKSTSGGTAALGCLVKDYFPEPVTVSWNSGALTSGVHTFPAVLQSSGLYSLSSVVTVPSSSLGTQTYICNVNHKPSNTKVDKKV[human IgG1 Fc with changes left out]GGGGSGGGGSGGGGSDCDIEGKDGKQYESVLMVSIDQLLDSMKEIGSNCLNNEFNFFKRHICDANKEGMFLFRAARKLRQFLKMNSTGDFDLHLLKVSEKTTILLNCTGQVKGRKPAALGEAQPTKSLEENKSLKEQKKLNDLCFLKRLLQEIKTCWNKILMGTKEH
notes: Format as m1; IL-7 with G85K; also called PD1-IL7 -G85K (Var20); P1AF5557-006

Experiments:
[1] = biological target: T3, cynomolgus IL7Ra-IL2Rg-Fc biotin (cynomolgus, UniProt P13232;Q29615); assay: SPR, captured via anti-P329G, receptor-Fc 2.34-300 nM, 1:1 fit
T3 construct: extracellular domain; Heterodimer of the ECD of IL7Ra and IL2Rg chains fused to an Fc; also called cynomolgus IL7Ralpha-IL2Rgamma-Fc heterodimer; cynomolgus IL7 receptor
Protocol: (§1) Surface Plasmon Resonance (SPR) experiments were performed on a Biacore 8 K with HBS-EP + 1 mg/ml BSA as running buffer. Anti-P329G Fc specific antibody (Roche internal) was directly immobilized by amine coupling on a C1 chip (Cytiva). The PD1-IL7 constructs were captured for 140 s at 5 nM. […] The dissociation phase was monitored for 800 s and triggered by switching from the sample solution to running buffer. The chip surface was regenerated after every cycle using two injections of 10 mM glycine pH 2 for 60 sec. Bulk refractive index differences were corrected for by subtracting the response obtained on the reference flow cell (containing immobilized anti P329G Fc specific IgG only). The affinity constants were derived from the kinetic rate constants by fitting to a 1:1 Langmuir binding using the Biacore evaluation software (Cytiva).
Four IL7 single variants and two IL7 double variants were compared to IL7 wild-type for binding to cynomolgus IL7 receptor (Table 18). The affinity of the IL7 variants to the IL7 receptor was determined using the recombinant heterodimer of the extracellular domains of the IL7 receptor alpha chain and the common IL2 receptor gamma chain.

[2] = biological target: T1, IL-7Rα/IL-2Rγ on human T cells; assay: cell-based or functional assay
[3] = biological target: T4, Human IL7Ra-IL2Rγ-Fc heterodimer (human, biotin on the avi tag); assay: SPR (Example 2.4), captured via anti-P329G, receptor-Fc 2.34-300 nM, 1:1 fit
T4 construct: Extracellular domains of IL-7Ralpha and IL-2Rgamma fused to Fc knob and Fc hole; also called hu IL7Ra-IL2Rγ-Fc avi biotin; human IL7Ra-IL2Rg-Fc biotin
Protocol: as §1, with “SPR” for “Surface Plasmon Resonance (SPR)”
Four IL7 single variants, two IL7 double variants and IL7 wild-type were compared to four reference molecules with modified IL7 for binding to human IL7 receptor (Table 23). The affinity of the IL7 variants to the IL7 receptor was determined using the recombinant heterodimer of the extracellular domains of the IL7 receptor alpha chain and the common IL2 receptor gamma chain.

[4] = biological target: T4, Human IL7Ra-IL2Rγ-Fc heterodimer; assay: SPR, captured via anti-P329G, receptor-Fc 2.34-300 nM, 1:1 fit
Protocol: as §1
Four IL7 single variants and two IL7 double variants were compared to IL7 wild-type for binding to human IL7 receptor (Table 17). The affinity of the IL7 variants to the IL7 receptor was determined using the recombinant heterodimer of the extracellular domains of the IL7 receptor alpha chain and the common IL2 receptor gamma chain.

[5] = biological target: T2, murine IL7Ra-IL2Rg-Fc biotin; assay: SPR, captured via anti-P329G
Protocol: as §1
Four IL7 single variants and two IL7 double variants were compared to IL7 wild-type for binding to murine IL7 receptor (Table 19). The affinity of the IL7 variants to the IL7 receptor was determined using the recombinant heterodimer of the extracellular domains of the IL7 receptor alpha chain and the common IL2 receptor gamma chain.

human PD-1 on T cells [6] = biological target: T5, human PD-1 on T cells (human, UniProt Q15116 25-288); assay: cell-based or functional assay
[7] = biological target: T1, IL-7Rα/IL-2Rγ on human T cells; assay: cell-based or functional assay; remark: listed apart in the source
human PD-1 on T cells [8] = biological target: T5, human PD-1 on T cells; assay: cell-based or functional assay; remark: listed apart in the source
T5 sequence (Q15116 25-288 limits assumed): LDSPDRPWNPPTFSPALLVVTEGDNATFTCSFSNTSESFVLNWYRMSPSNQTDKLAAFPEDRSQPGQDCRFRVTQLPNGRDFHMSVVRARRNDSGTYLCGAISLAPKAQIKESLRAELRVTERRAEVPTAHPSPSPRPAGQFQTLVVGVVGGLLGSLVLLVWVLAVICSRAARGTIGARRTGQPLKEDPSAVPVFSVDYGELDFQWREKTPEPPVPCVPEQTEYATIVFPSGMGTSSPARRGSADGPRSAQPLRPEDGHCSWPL

[9] = biological target: T1, IL-7Rα/IL-2Rγ on human T cells; assay: cell-based or functional assay; remark: listed apart in the source
human PD-1 on T cells [10] = biological target: T5, human PD-1 on T cells; assay: cell-based or functional assay; remark: listed apart in the source
[11] = biological target: T1, IL-7Rα/IL-2Rγ on human T cells; assay: cell-based or functional assay; remark: listed apart in the source
[12] = biological target: T4, Human IL7Ra-IL2Rγ-Fc heterodimer; assay: SPR (Example 2.4), captured via anti-P329G, receptor-Fc 2.34-300 nM, 1:1 fit, single value
Protocol: as §1, with “SPR” for “Surface Plasmon Resonance (SPR)”

[13] = biological target: T4, Human IL7Ra-IL2Rγ-Fc heterodimer; assay: SPR, captured from supernatant, 800 nM receptor-Fc single injection
Summary of the method: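 PDI-IL7 constructs were captured from supernatant (100 nM, 120 s) on anti-Fc CM5 surfaces in HBS-EP+ pH 7.4; 800 nM HEK-produced extracellular-domain receptor-Fc heterodimer was injected once (240 s association, 360 s dissociation). Binding/capture ratio recorded; koff from single-curve fit of dissociation, reference-subtracted.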

Row | Binder | Kd [1] [nM] | koff [1] [s⁻¹] | kon [1] [M⁻¹ s⁻¹] | Kd [3] [nM] | koff [3] [s⁻¹] | kon [3] [M⁻¹ s⁻¹] | Kd [4] [nM] | koff [4] [s⁻¹] | kon [4] [M⁻¹ s⁻¹] | binding result [5] | also measured
1 | B1 | 155 | 0.0251 | 162000 | 129 | 0.0124 | 96400 | 121 | 0.0162 | 135000 | no binding (tested: 2.34 to 300 nM receptor-Fc) | EC50[active] / EC50 [active PD1-IL7wt] [2]: 27.4 fold; EC50[fresh]/EC50 [fresh PD1-IL7wt] [2]: 304 fold; STAT5-P AUC [active] [2]: 81; STAT5-P AUC [fresh] [2]: 143; EC50 [PD1blocked]/ EC50 [PD1+] (human PD-1 on T cells [6]): 109 fold; EC50 [PD1+]/ EC50[PD1-IL7wt] [7]: 16.5 fold; STAT5-P AUC PD1+ [7]: 58; STAT5-P AUC PD1 blocked [7]: 12.9
2 | B2 | – | – | – | 14.1 | 0.00141 | 101000 | – | – | – | – | STAT5-P activity, PD-1 pre-blocked versus PD-1+ T cells (human PD-1 on T cells [8]): > 60 fold; STAT5-P Area (PD1+) [9]: 62.5; STAT5-P Area (PD1 blocked) [9]: 15.3
3 | B3 | 142 | 0.051 | 360000 | – | – | – | 75.8 | 0.0143 | 189000 | no binding (tested: 2.34 to 300 nM receptor-Fc) | fold increase in EC50, EC50 [with PD1bl]/EC50 [PD1+] (human PD-1 on T cells [10]): 25000 fold; fold increase in EC50, EC50 [PD1+]/EC50 PD1-IL7wt [PD1+] [11]: 9.3 fold; Kd [12]: 116 nM; koff [12]: 0.0196 s⁻¹; kon [12]: 170000 M⁻¹ s⁻¹; koff [13]: 0.00741 s⁻¹
